Measured values taken from the supplement of paper PMC11417369.
± gives the standard deviation of the averaged measurements. Some of the results follow.

tested on: PfAP2-LT AP2 domain (GST-tagged); test: gcPBM binding intensity (ln(normalized median fluorescence intensity)); higher = stronger DNA binding
How it was run: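 Each value is the highest Masliner-normalised natural-log median intensity across replicate spots of either orientation of a probe. The probes were primer-extended double-stranded 36-bp intergenic genomic sequences on an Agilent 4 × 180k array, alongside negative controls, exposed for 1 h to GST-tagged P. falciparum DNA-binding domains expressed in E. coli. Bound protein was picked up with Alexa488 anti-GST antibody and scanned at 488 nm.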

Sequence	gcPBM binding intensity (ln)
ACATAATAAAAATGACGTACAATTTTTTTTTTTCAT [XGTACX_site8340]	8.66 ± 0.47
ACTACATAATATTAACGTACATATTATAATACTTGC [XGTACX_site954]	8.9 ± 0.43
ATATAACACATTAGTTGTACTATTTTTAATTGGTGA [XGTACX_site961]	8.65 ± 0.44
TAGCCCATATGGAATACACACTGAAAATAAAAAAAG [CACACA_site5799]	8.96 ± 0.57
TTACAATAAATTATAGTGCAATATTTTATTTAATAT	8.41 ± 0.44
ATGAATAATTAATGATGTACTTAAAAAAAAAAATAT [XGTACX_site6346]	8.65 ± 0.49
AAAAAAAAAAAAAAAAAAAAAAAAAAAAAAACATAT [GTGCAC_negctrl_site580]	9.01 ± 0.28
GTTAATATCTTGAACAGTACTCTAAATATCTACATA [XGTACX_site5358]	8.57 ± 0.41
ATATATTATATTGAATGTACATATATATATTATATA [XGTACX_site8445]	8.64 ± 0.41
CAATGTTGTACATACACACACACAAAAAAAAAATAA [CACACA_site2407]	9.6 ± 0.45
TTCAAATTTCCACATACACACCTTGTAGATCTATAT [CACACA_site6270]	9.03 ± 0.48
ATAAAAAAACACACTCGTACACACATATTTTCTTTC [XGTACX_site6565]	9.27 ± 0.33
TGCTATAATTTATATACACACAAATATATACACATA [CACACA_site9356]	8.96 ± 0.4
GATAATAATAAACAACCACACACAAAAAAACAAAAA [CACACA_site9074]	9.54 ± 0.33
ATATATTTAACAAGATGTACAATTTTATAAAAAATA [XGTACX_site2351]	8.48 ± 0.46
TATATATAAATATTCAGTACATAGTGCTATTAAGTG [XGTACX_site1979]	8.68 ± 0.36
CCATTATATCTAAGTACACACATTAATTTTTTTTTT [CACACA_site6115]	8.72 ± 0.38
AGAAATTAATCGAGGTGTACGTACATCCAAATATAT [XGTACX_site7650]	9.03 ± 0.45
TGAAAAGGAAATTGTTGTACATATGTTTCTTCCTAA [XGTACX_site3932]	8.56 ± 0.45

Sequence	gcPBM binding intensity (ln)
AATAGCAATTTGGGGTGTACACACACCTTATTTAAA [XGTACX_site2234]	8.94 ± 0.54
TTTTTATAAAAAAATAGTACTCGTCTAATCTTATGT [XGTACX_site8532]	8.48 ± 0.5
TTATGATGGTCTTTATAAGGGCACATTAAATTCGGC [TGCATGCA_negctrl_site166]	8.44 ± 0.37
AAACTATTCACTATAATACATTAGAAGTGAATAAAA [TGCATGCA_negctrl_site498]	8.65 ± 0.38
GAGAAGACATTACACAGTACCCAGTAACTCTACGGA [XGTACX_site2000]	8.96 ± 0.47
GATTATTATGTCCATGCATGTTAATATATATTAATT [TGCATGCA_site837]	9.02 ± 0.4
AAATTGGGGCTTGTTACACACTTAGTGCGAGTTCTA [CACACA_site582]	9.12 ± 0.23
TTTTAAAAAACAAACACACACGTAGAAAAAAAAAAA [CACACA_site4608]	9.04 ± 0.42
AAAATATATATAAATGCATGCATAATGAAATATATA [TGCATGCA_site39]	9.17 ± 0.28
CTGTATAAAACCAATGCATGTAAATATATTAATATA [TGCATGCA_site511]	8.81 ± 0.35
GAAATTTTATTTCGGCGGACAAATGTATACTTTCTT [XGTACX_site4238]	8.99 ± 0.31
ACAAGGAATATAAAAAGTACATAAAATACATAAAAA [XGTACX_site1217]	8.95 ± 0.51
CCATTTACATTGTGAAGTACTAAAAAAAAATGTAGA [XGTACX_site7882]	8.59 ± 0.47
ATAATTTGATGGTTAACACACATATATATTATATAT [CACACA_site2449]	9.17 ± 0.4
TATGGATGTATTCATACATGCACACGTACATATTTA [TGCATGCA_site991]	9.05 ± 0.22
ATATAAATATAAATATATATGTATAAATATAAATAT [CACACA_negctrl_site247]	8.86 ± 0.45
ATATATTATTATAACTGTACTTTTTTTGTGGTTAAT [XGTACX_site8266]	8.85 ± 0.42
TATGCGTATATATAAATACACACCAAATGTTAATAT [CACACA_site1713]	8.91 ± 0.37
ATCATTTTTAAAGGAACACACAAAAAAAGTTATAAT [CACACA_site6761]	8.79 ± 0.47

Sequence	gcPBM binding intensity (ln)
TATATATATATATATACACACAAAAAAATAAATTCT [CACACA_site98]	9.38 ± 0.11
TACTTTTCATCTTCTTAACACACAAAAAAAAAAAAA [CACACA_site9290]	8.32 ± 0.43
ATTTATTTTAATAATTGTACATGTTATTTTATATAT [XGTACX_site2667]	8.84 ± 0.54
TATAAATATAAATACACACACATATATATTATATAT [CACACA_site4496]	9.28 ± 0.26
TATATATATATATGTTGTACATATTTAAATGTTTAT [XGTACX_site5437]	9.39 ± 0.071
ACCTATTTCAAACACACACACACACTAGCAAACATA [CACACA_site4695]	9.88 ± 0.13
ATATATATATATATGTGTACATAATAACTTTGCTTA [XGTACX_site1255]	9.61 ± 0.29
CTTATTTCCTTTTGTAGTACCTTATAATATATATAA [XGTACX_site8873]	8.65 ± 0.33
GCATTTCTACTAAAAATACACACGATGATACAACGA [CACACA_site1756]	8.86 ± 0.35
TTCTATTTGTAAAATTGTACAAAATAAATAACAAAA [XGTACX_site1007]	8.45 ± 0.4
TAATAATAGTACTCACATCAAAGTATTATTAAAAAT [TGCATGCA_negctrl_site496]	8.6 ± 0.48
GGGAAGTAGTAGTAATGTACTTATTTATTATGTGAC [XGTACX_site3985]	8.84 ± 0.42
TTATATATTTTTTGCACACCAAAAAAGAGAATATTC [CACACA_site2730]	8.68 ± 0.34
AATTAAATTATAAGCACACACATATATATATATATA [CACACA_site3351]	9.81 ± 0.057
CCACGTATAATATGTACACACACATAAATACAAAAA [CACACA_site4660]	9.62 ± 0.49
TAAAAAATGTTATATACACACAGTATAAAAAAAAAT [CACACA_site7808]	9.04 ± 0.45
AATATTCACATTTGTTGTACATTCCTAGTTATATAA [XGTACX_site491]	8.86 ± 0.38
AAAAAATTTCAAATAACACACACTAATATATATATG [CACACA_site1426]	9.05 ± 0.33
TAAATATATAATTGTAGTACTGTTTTATGTTCATAA [XGTACX_site1020]	8.6 ± 0.35
